Test results from PubChem BioAssay AID504832 (National Center for Advancing Translational Sciences (NCATS), 2011).
The whole screen tested about 310,000 compounds, of which about 18,000 (5.8%) were called active. Inconclusive results, whose numbers are uncertain, are shown with a selection of clear calls. The call rests on the fitted dose curve; in most records, active means well fitted inhibition curve with a large enough effect; inconclusive means small, poorly fitted or top-dose-only effect, or another doubt; inactive means no such curve, though single readings can be large or run the other way. Potencies of inconclusive entries are left out as doubtful fits.
On the % scale 0 is the no-effect control and ±100 the full control effect; potency means the concentration at half of the fitted maximal effect; tags describe the fitted curve by direction and shape.

Assay: Primary qHTS for delayed death inhibitors of the malarial parasite plastid, 48 hour incubation
Conditions: P. falciparum luciferase growth in erythrocytes; series mostly up to 28.7 µM; activity change, negative = inhibition: at the top concentration
Summary of the method: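 Firefly luciferase activity from engineered P. falciparum reports growth; inhibitors lower the luminescent signal. Cultures contained 2% hematocrit erythrocytes at 0.1% final parasitemia.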
For CC1C(=O)C(C)C(c2ccc(Br)cc2)NC1c1ccc(Br)cc1 (centres undefined), the Potency was inconclusive [inhibitor, single point].
With O=C(Nc1ccccc1)C1=C[C@H](c2csc3ccccc23)C[C@H](OCc2ccc(CO)cc2)O1 the Potency was inconclusive [inhibitor, full curve].
With CCOC(=O)N1CCC(NC(=O)c2ccccc2C(=O)O)CC1 the Potency was active: 5.86 µM.
With COc1cc(C2C3C(=O)N(Cc4ccccc4)C(=O)C3ON2c2ccccc2)cc(OC)c1OC (centres undefined) the Potency was inconclusive [inhibitor, single point].
With COc1cccc(-c2nnc(SCC(=O)Nc3ccc4c(c3)OCCO4)n2Cc2ccco2)c1 the Potency was inconclusive [inhibitor, single point].
In the case of CC(C)C[C@H](NC(=O)[C@H](Cc1ccccc1)n1c(=O)[nH]c2ccccc2c1=O)C(=O)N1CCC[C@@H]1C(=O)O, the “activity change, negative = inhibition” value is reported as inactive: -2.32%.
In the case of COc1ccc(C(C#N)c2nc3ccccc3nc2Cl)cc1 (centres undefined), the Potency is reported as inconclusive [inhibitor, single point].
For CCc1nnc(NC(=O)CSc2nnc(Cc3cc(=O)[nH]c(=O)[nH]3)n2-c2ccc(OC)cc2)s1, the Potency was inconclusive [inhibitor, single point].
For Cc1nc(N2CCN(c3ccccn3)CC2)c2c(C)c(C(=O)N3CCN(c4cccc(Cl)c4)CC3)sc2n1, the Potency was inconclusive [inhibitor, full curve, poor fit].
In the case of COc1ccc(Cl)cc1-n1c(C)ccc1C, the “activity change, negative = inhibition” value is reported as inactive: -27%.
In the case of CN1CCN(c2ccc(F)cc2N)CC1, the “activity change, negative = inhibition” value is reported as inactive: 23.4%.
In the case of CC(=O)COc1nc2c(c(-c3ccco3)c1C#N)CCc1ccccc1-2, the Potency is reported as active: 11.7 µM.
For O=C(NCCN1CCOCC1)c1ccc(Cl)c(Cl)c1, the Potency was inconclusive [inhibitor, full curve, poor fit].
For Fc1ccccc1CSc1ncnc2sc3c(c12)CCCC3, the “activity change, negative = inhibition” value was inactive: 20.1%.
With COc1ccc(S(=O)(=O)c2cnc3ccc(OC)cc3c2N2CCC3(CC2)OCCO3)cc1 the Potency was inconclusive [inhibitor, partial curve].
With O=C1C(Cc2ccc(F)cc2)SC(=Nc2ccccc2)N1c1ccccc1 (centres undefined) the Potency was active: 10.4 µM.
For Cc1ccc(Nc2nc(OC(C(F)(F)F)C(F)(F)F)nc(N3CCOCC3)n2)cc1, the Potency was inconclusive [inhibitor, partial curve].
In the case of O=C(NNC(=O)c1ccccc1[N+](=O)[O-])c1ccccn1, the Potency is reported as inconclusive [inhibitor, single point].
With COc1ccc(OCCN(C)C(=O)c2cccc(S(=O)(=O)N(C)c3ccccc3)c2)cc1 the Potency was inconclusive [inhibitor, single point].
In the case of CCOc1cc(S(=O)(=O)NCCCn2ccnc2)ccc1Cl, the Potency is reported as inconclusive [inhibitor, partial curve, poor fit].
In the case of CCn1c(O)c(/C(C)=N/N2CCCCC2c2cccnc2)c(=O)[nH]c1=S (centres undefined), the Potency is reported as inconclusive [inhibitor, single point].
With COc1cc(C)c(Br)cc1S(=O)(=O)NCCN1CCOCC1 the activity change, negative = inhibition was inactive: -36.5% [at 5.75 µM].
In the case of Cc1c(Cc2ccccc2)c(=O)oc2cc(OCC(=O)N3CCC(C(=O)O)CC3)ccc12, the Potency is reported as inconclusive [inhibitor, single point].
For COc1ccc(NC(=O)c2cc(-c3ccco3)nc3ccccc23)cn1, the Potency was inconclusive [inhibitor, single point].
In the case of O=C(COC(=O)CCC(=O)c1cccs1)NC1CC1, the “activity change, negative = inhibition” value is reported as inactive: 8.24%.
In the case of O=C(COc1ccc2ccccc2c1)N[C@@H](C(=O)O)c1ccc(O)cc1, the “activity change, negative = inhibition” value is reported as inactive: 28.7%.
With O=C(O)COc1ccc2c(c1)O/C(=C\c1ccco1)C2=O the “activity change, negative = inhibition” value was inactive: 2.86%.
With CC(=O)O[C@H]1CC[C@@]2(C)C(CCC3C2CC[C@]2(C)OC(=O)CCC32)C1 (some centres undefined) the “activity change, negative = inhibition” value was inactive: -17.9%.
In the case of CCn1c(SCC(=O)N(Cc2ccccc2)C2CCS(=O)(=O)C2)nc2ccccc2c1=O (centres undefined), the Potency is reported as active: 5.22 µM.
In the case of O=C(CNC(=O)c1ccc2ccccc2c1)NCc1ccc(F)cc1, the “activity change, negative = inhibition” value is reported as inactive: 0%.
With CCOC(=O)c1c2ccc(OCC(=O)N/N=C/c3ccccc3C(F)(F)F)cc2n2ccccc12 the Potency was inconclusive [inhibitor, single point].
In the case of CC(C)c1ccc(-c2cc(C(=O)N3N=C(C(F)F)CC3(O)C(F)F)c3ccccc3n2)cc1 (centres undefined), the Potency is reported as inconclusive [inhibitor, single point].
In the case of Cc1nn(C(C)C)c(C)c1CN1CCN(Cc2ccsc2)C(CCO)C1 (centres undefined), the “activity change, negative = inhibition” value is reported as inactive: -0.153%.
In the case of CCOC(=O)c1ccc(NC(=O)c2nc[nH]c2C(=O)N[C@@H](C)C(=O)OC(C)(C)C)cc1, the Potency is reported as inconclusive [inhibitor, single point].
With COc1cc(/C=C(\C#N)C(=O)Nc2ccc(C(=O)O)cc2)ccc1OC(=O)c1cccc(F)c1 the “activity change, negative = inhibition” value was inactive: 15.1%.
With C=CCSc1nc(-c2ccc(OC)cc2)c(C#N)c(=O)n1CC=C the Potency was inconclusive [inhibitor, single point].
For CCN(CC)CCNS(=O)(=O)c1ccc(C(=O)NN)cc1, the “activity change, negative = inhibition” value was inactive: 8.65%.
With Cc1ccc(NC(=O)C2(c3cccs3)CCOCC2)cc1C the “activity change, negative = inhibition” value was inactive: -16.4%.
In the case of CCN1CCN(c2ccc(NC(=O)c3cc4ccccc4cc3OC)cc2C)CC1, the Potency is reported as inconclusive [inhibitor, partial curve, poor fit].
With O=C(Nc1nc(-c2cc3ccccc3o2)cs1)c1ccc(S(=O)(=O)N2CCCC2)cc1 the “activity change, negative = inhibition” value was inactive: -28.5%.
With CCOc1cc(Cl)c(NC(C)=O)cc1OCC the “activity change, negative = inhibition” value was inactive: -0.892%.
With CCCCn1c(CN2CCN(c3ccccc3)CC2)nc2c1c(=O)n(C)c(=O)n2C the Potency was inconclusive [inhibitor, partial curve, poor fit].
In the case of CCCN=C1CC(C)(C)CC(=O)/C1=C(/O)CCC, the “activity change, negative = inhibition” value is reported as inactive: 0%.
In the case of Cc1ccccc1Nc1nc(N)nc(COC(=O)CCC(=O)c2ccc(F)cc2)n1, the Potency is reported as inconclusive [inhibitor, partial curve].
For O=S(=O)(c1ccc(Cl)cc1)N1CC1c1ccccc1 (centres undefined), the “activity change, negative = inhibition” value was inactive: 5.69%.
In the case of O=C(NCc1ccco1)C1CC(c2ccccc2C(F)(F)F)=NO1 (centres undefined), the “activity change, negative = inhibition” value is reported as inactive: 35.6%.
For COc1ccc([N+](=O)[O-])cc1NC(=O)Cc1c(Cl)cccc1Cl, the Potency was inconclusive [inhibitor, partial curve].
With COc1cc(NC(=O)C2CCC(=O)N2S(=O)(=O)c2ccc(C)cc2)cc(OC)c1 (centres undefined) the Potency was inconclusive [inhibitor, partial curve, poor fit].
With CCCCC(=O)N1CCN(c2nc(-c3ccc(F)cc3)cs2)CC1 the “activity change, negative = inhibition” value was inactive: 8.94%.
In the case of CCc1nnc(SCC(=O)N2CCCc3ccccc32)nc1CC, the Potency is reported as inconclusive [inhibitor, partial curve, poor fit].
In the case of O=C(Nc1ccc2oc(Cc3ccc(Cl)cc3)nc2c1)c1cccnc1, the Potency is reported as inconclusive [inhibitor, partial curve].
In the case of COc1cc(CN2CCCC(N3CCN(c4ccc(F)cc4)CC3)C2)ccc1F (centres undefined), the Potency is reported as active: 2.08 µM.
For Cc1cccc(C(=O)N2CCCC(N3CCN(Cc4ccc5c(c4)OCO5)CC3)C2)n1 (centres undefined), the “activity change, negative = inhibition” value was inactive: 0%.
With CCOc1ccc(NC(=S)N(CCc2c(C)[nH]c3ccccc23)Cc2cccnc2)cc1 the Potency was inconclusive [inhibitor, single point].
In the case of O=NNc1nc2ccccc2n1Cc1ccccc1, the Potency is reported as inconclusive [inhibitor, partial curve, poor fit].
With O=C(Nc1cnn(Cc2ccc(Cl)c(Cl)c2)c1)c1nc2ncccn2n1 the Potency was inconclusive [inhibitor, partial curve, poor fit].
In the case of COc1ccc(NS(=O)(=O)c2cc(NC(=O)COc3ccccc3F)ccc2OC)cc1, the Potency is reported as inconclusive [inhibitor, single point].
In the case of CCc1ccc(Nc2n[n+](-c3ccccc3)c(-c3ccc(OCc4ccccc4)cc3)s2)cc1, the Potency is reported as inconclusive [inhibitor, partial curve, poor fit].
In the case of COc1cc(/C=C2/SC(=O)NC2=O)ccc1Oc1ccc([N+](=O)[O-])cc1[N+](=O)[O-], the Potency is reported as inconclusive [inhibitor, single point].
With OCCCNc1nc(-c2ccc(Cl)cc2)nc2ccccc12 the “activity change, negative = inhibition” value was inactive: -8.27%.
In the case of COC(=O)C1=C(C)NC(C)=C(C(=O)OC)C1c1ccc(-c2cc(Cl)ccc2Cl)o1, the Potency is reported as inconclusive [inhibitor, partial curve, poor fit].
In the case of CS(=O)(=O)c1ccc2nc(NC(=O)CCNC(=O)c3ccc(Cl)cc3)sc2c1, the “activity change, negative = inhibition” value is reported as inactive: -39.6%.
With COc1ccccc1OCCCCCc1c(C)n[nH]c1C the Potency was inconclusive [inhibitor, single point].
For O=S(=O)(c1ccc2c(c1)OCCO2)N1CCN(S(=O)(=O)c2ccc3c(c2)OCCO3)CC1, the Potency was inconclusive [activator, partial curve].
In the case of CN1CCN(c2ccc(-c3cccc(NC(=O)COc4ccc(Cl)cc4)c3)nn2)CC1, the Potency is reported as inconclusive [inhibitor, single point].
For Cc1ccc(Sc2c(C(=O)Nc3ccc(F)cc3F)c(C(F)(F)F)nn2C)cc1, the Potency was inconclusive [inhibitor, single point].
In the case of Cc1sc2ncn(CC(=O)NCCCC(=O)N3CCN(c4ccccc4)CC3)c(=O)c2c1C, the Potency is reported as inconclusive [inhibitor, single point].
For CCC(C)[C@H](NC(=O)[C@@H]1CSC2c3ccccc3C(=O)N21)C(=O)NC1CCCC1 (some centres undefined), the Potency was inconclusive [inhibitor, single point].
With CCN1CCN(c2ccc([N+](=O)[O-])cc2C#N)CC1 the Potency was active: 4.15 µM.
